Measurements reported in the supplement of paper PMC7125110.
± gives the standard error. This sample is rich in variants without activity.

B1: glmS ribozyme (parent)
chain: AUAAAAGCGCCAGAACUACAGAAAUGUAGUUGACGAGGAGGAGGUUUAUCGAAUUUUCGGCGGAUGCCUCCAAA

Variants of: B1
Experiment: self-cleavage kobs at 2500 uM GlcN6P; higher = faster cleavage; RNA array
Conditions: with glucosamine-6-phosphate
Procedure, shortened: (§1)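 Weighted Michaelis–Menten fits across concentrations supplied kcat and KM, based on kobs from one- or two-exponential decay fits to normalised per-tile medians. The data came from barcoded ribozyme variants transcribed in situ by E. coli RNA polymerase on sequenced MiSeq chips and tracked at 37 °C by a hybridised Cy3 probe. Glucosamine-6-phosphate (40 μM to 10 mM) in HEPES/KCl/Mg(OAc)2 buffer was flowed in.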

Variant | self-cleavage kobs at 2500 uM GlcN6P [s⁻¹]
G13A U31G G35C U47G | < 1e-05
G13C U55G G60A | < 1e-05
G13U A15C U54C | 0.00013 ± 3.3e-05
G13U A15U A48C | < 1e-05
G13U G29U G38A | < 1e-05
G13U G66C C68U | < 1e-05
A14C A15C G38U | < 1e-05
A14C A33G G35C G38C G44A A48U C50U | < 1e-05
A14C A42G G43U C70A | < 1e-05
A14C A48C | 4.95e-05 ± 1.2e-05
A14C C58A G63A | < 1e-05
A14C G21U G26U A36C | < 1e-05
A14C G26U G38A G44A U45A | < 1e-05
A14G A15G G29C A42C | < 1e-05
A14G A36G C58G | < 1e-05
A14G C16G A64G U69G | 5.19e-05 ± 2.3e-05
A14G G51C A64U C67G C71U | < 1e-05
A14U A15U G40U | 0.000122 ± 3.7e-05
A14U A39C G51A | < 1e-05
A14U U30G A48C G51U | < 1e-05
A15C A33G A36C A39C | < 1e-05
A15C A36G G44U | < 1e-05
A15C A52C U54C C67A | < 1e-05
A15C G32U G38C G59U | < 1e-05
A15C G37A A53C G60U | < 1e-05
A15C G44A C58G G62U | < 1e-05
A15C G66U U69C | 4.52e-05 ± 1.5e-05

Variant | self-cleavage kobs at 2500 uM GlcN6P [s⁻¹]
A15C U31A G43C A48C A64G | < 1e-05
A15G A33U G37C | < 1e-05
A15G A39U G40A C61A | < 1e-05
A15G G32C C70G | < 1e-05
A15G U55G C71U | 0.00368 ± 0.0014
A15U A42U G43C C61G U69A | < 1e-05
A15U G29C G40U | 3.13e-05 ± 1.2e-05
A15U U30G A42U G60U G62A C71U | < 1e-05
A15U U45A U57C | 4.29e-05 ± 1.9e-05
C16G G32C G41A A52G | < 1e-05
C16G U55G G62A | < 1e-05
C16U A48G | 6.63e-05 ± 1.1e-05
G21U G35U | < 1e-05
G29A G32U A33C | < 1e-05
G29C U30G G35A | < 1e-05
G29U A33U G51A G59U | < 1e-05
G29U G38C C61G G63U | < 1e-05
U30A A39C U49A U57A | < 1e-05
U30C C58A | 2.92e-05 ± 1.1e-05
U30C G40U G43A C68A C70A | < 1e-05
U30G A53C A64U | < 1e-05
U30G G37C C58U | < 1e-05
U30G G60A G62U A64U | < 1e-05
U31A A33G U45C U57G A64C C71U | < 1e-05
U31C A48G G63C C67U | < 1e-05
U31C G35A C71U | < 1e-05
U31C G38A G40A | < 1e-05

Variant | self-cleavage kobs at 2500 uM GlcN6P [s⁻¹]
U31C G43U A53G C61U C67A | < 1e-05
U31G A52C C58G | < 1e-05
U31G U56C G62A | < 1e-05
G32A A36U A42C C71G | < 1e-05
G32A A36U A64G | < 1e-05
G32A A64G C68A | < 1e-05
G32A C58U C68G | 0.000103 ± 3.5e-05
G32A G37U C71U | < 1e-05
G32C A53U U54G C71A | < 1e-05
G32C G37C G40C G62C C68A | < 1e-05
G32C G41U G43C | < 1e-05
G32U C61A C71A | < 1e-05
G32U G38A U47A U65C | < 1e-05
G32U G38C G40C U57C C67A | < 1e-05
G32U U47C G59U | < 1e-05
G32U U55A C70U | 0.000404 ± 8e-05
A33C A53U U54G | 0.000173 ± 4.3e-05
A33C C50U U56C | < 1e-05
A33C G40U G44A | < 1e-05
A33G A36G U65A | < 1e-05
A33G A39U G63U C67G | < 1e-05
A33G A52G G63A | < 1e-05
A33G G35A G44U G59C C70U | < 1e-05
A33U G41U G66U C67G | < 1e-05
A33U G59U G60C C61G | < 1e-05
A33U G66A | 3.2e-05 ± 1e-05

Variants of: B1
Experiment: self-cleavage kobs at 10000 uM GlcN6P; higher = faster cleavage; RNA array
Conditions: with glucosamine-6-phosphate
Procedure, shortened: as §1

Variant | self-cleavage kobs at 10000 uM GlcN6P [s⁻¹]
G13U A15C U54C | 0.000122 ± 1.9e-05
A14C A48C | 4.92e-05 ± 1.2e-05
A14U A15U G40U | 0.000149 ± 2.6e-05
C16U A48G | 6.95e-05 ± 8.6e-06
A33G A36G U65A | < 1e-05
A33G A39U G63U C67G | < 1e-05
A33U G66A | 5.28e-05 ± 6.4e-06
